The chains are these.
T1: RBFOX1 RRM RbFoxmut (Fox-RRM*) (Homo sapiens, UniProt Q9NWB1 109-208, R118D;E147R;N151S;E152T)
T1 sequence: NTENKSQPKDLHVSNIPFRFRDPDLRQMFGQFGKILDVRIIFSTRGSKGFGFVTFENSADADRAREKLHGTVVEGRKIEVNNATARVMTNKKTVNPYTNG

B1: CCGACAU (DNA:RNA)
RNA: GGGAGACCGGAAUUCAGAUUGUCCCCGACAUUUAAAUCCCGUCGUAGCCACCA
DNA 1: CAATCTGAATTCCGGTCTCCC
DNA 2: TGGTGGCTACGACGGGATT
B2: GAUCGCC (DNA:RNA)
RNA: GGGAGACCGGAAUUCAGAUUGUCCGAUCGCCUUAAAUCCCGUCGUAGCCACCA
DNA 1: CAATCTGAATTCCGGTCTCCC
DNA 2: TGGTGGCTACGACGGGATT
B3: GGAACUA (DNA:RNA)
RNA: B1 RNA with C25G, C26G, G27A, A30U, U31A
DNA 1: CAATCTGAATTCCGGTCTCCC
DNA 2: TGGTGGCTACGACGGGATT
B4: CCGGCGC (DNA:RNA)
RNA: B1 RNA with A28G, A30G, U31C
DNA 1: CAATCTGAATTCCGGTCTCCC
DNA 2: TGGTGGCTACGACGGGATT
B5: CAAGGAU (DNA:RNA)
RNA: B1 RNA with C26A, G27A, A28G, C29G
DNA 1: CAATCTGAATTCCGGTCTCCC
DNA 2: TGGTGGCTACGACGGGATT
B6: UCCGCAC (DNA:RNA)
RNA: B1 RNA with C25U, G27C, A28G, U31C
DNA 1: CAATCTGAATTCCGGTCTCCC
DNA 2: TGGTGGCTACGACGGGATT
B7: UUGAGAG (DNA:RNA)
RNA: B1 RNA with C25U, C26U, C29G, U31G
DNA 1: CAATCTGAATTCCGGTCTCCC
DNA 2: TGGTGGCTACGACGGGATT
B8: AAAUUCC (DNA:RNA)
RNA: B2 RNA with G25A, U27A, C28U, G29U
DNA 1: CAATCTGAATTCCGGTCTCCC
DNA 2: TGGTGGCTACGACGGGATT
B9: UGGGGUU (DNA:RNA)
RNA: B1 RNA with C25U, C26G, A28G, C29G, A30U
DNA 1: CAATCTGAATTCCGGTCTCCC
DNA 2: TGGTGGCTACGACGGGATT
B10: GCGUUAG (DNA:RNA)
RNA: B1 RNA with C25G, A28U, C29U, U31G
DNA 1: CAATCTGAATTCCGGTCTCCC
DNA 2: TGGTGGCTACGACGGGATT
B11: CUGCCUC (DNA:RNA)
RNA: B1 RNA with C26U, A28C, A30U, U31C
DNA 1: CAATCTGAATTCCGGTCTCCC
DNA 2: TGGTGGCTACGACGGGATT
B12: UCGCAAG (DNA:RNA)
RNA: B1 RNA with C25U, A28C, C29A, U31G
DNA 1: CAATCTGAATTCCGGTCTCCC
DNA 2: TGGTGGCTACGACGGGATT
B13: UUGAAAC (DNA:RNA)
RNA: B1 RNA with C25U, C26U, C29A, U31C
DNA 1: CAATCTGAATTCCGGTCTCCC
DNA 2: TGGTGGCTACGACGGGATT
B14: UAGGCAU (DNA:RNA)
RNA: B1 RNA with C25U, C26A, A28G
DNA 1: CAATCTGAATTCCGGTCTCCC
DNA 2: TGGTGGCTACGACGGGATT
B15: UUGUGCU (DNA:RNA)
RNA: B1 RNA with C25U, C26U, A28U, C29G, A30C
DNA 1: CAATCTGAATTCCGGTCTCCC
DNA 2: TGGTGGCTACGACGGGATT
B16: CAAGAUU (DNA:RNA)
RNA: B1 RNA with C26A, G27A, A28G, C29A, A30U
DNA 1: CAATCTGAATTCCGGTCTCCC
DNA 2: TGGTGGCTACGACGGGATT
B17: CUUCCCC (DNA:RNA)
RNA: B2 RNA with G25C, A26U, G29C
DNA 1: CAATCTGAATTCCGGTCTCCC
DNA 2: TGGTGGCTACGACGGGATT
B18: GUAUGCA (DNA:RNA)
RNA: B2 RNA with A26U, U27A, C28U, C31A
DNA 1: CAATCTGAATTCCGGTCTCCC
DNA 2: TGGTGGCTACGACGGGATT
B19: GCAGAAA (DNA:RNA)
RNA: B1 RNA with C25G, G27A, A28G, C29A, U31A
DNA 1: CAATCTGAATTCCGGTCTCCC
DNA 2: TGGTGGCTACGACGGGATT
B20: AUGUUGG (DNA:RNA)
RNA: B1 RNA with C25A, C26U, A28U, C29U, A30G, U31G
DNA 1: CAATCTGAATTCCGGTCTCCC
DNA 2: TGGTGGCTACGACGGGATT
B21: UACCUUU (DNA:RNA)
RNA: B2 RNA with G25U, U27C, G29U, C30U, C31U
DNA 1: CAATCTGAATTCCGGTCTCCC
DNA 2: TGGTGGCTACGACGGGATT
B22: CAACUAU (DNA:RNA)
RNA: B1 RNA with C26A, G27A, A28C, C29U
DNA 1: CAATCTGAATTCCGGTCTCCC
DNA 2: TGGTGGCTACGACGGGATT
B23: AAAACCG (DNA:RNA)
RNA: B1 RNA with C25A, C26A, G27A, A30C, U31G
DNA 1: CAATCTGAATTCCGGTCTCCC
DNA 2: TGGTGGCTACGACGGGATT
B24: CUCAAAU (DNA:RNA)
RNA: B1 RNA with C26U, G27C, C29A
DNA 1: CAATCTGAATTCCGGTCTCCC
DNA 2: TGGTGGCTACGACGGGATT
B25: CACGUUA (DNA:RNA)
RNA: B1 RNA with C26A, G27C, A28G, C29U, A30U, U31A
DNA 1: CAATCTGAATTCCGGTCTCCC
DNA 2: TGGTGGCTACGACGGGATT
B26: CGAGGCA (DNA:RNA)
RNA: B2 RNA with G25C, A26G, U27A, C28G, C31A
DNA 1: CAATCTGAATTCCGGTCTCCC
DNA 2: TGGTGGCTACGACGGGATT
B27: GACUUAG (DNA:RNA)
RNA: B2 RNA with U27C, C28U, G29U, C30A, C31G
DNA 1: CAATCTGAATTCCGGTCTCCC
DNA 2: TGGTGGCTACGACGGGATT
B28: CUCACGU (DNA:RNA)
RNA: B1 RNA with C26U, G27C, A30G
DNA 1: CAATCTGAATTCCGGTCTCCC
DNA 2: TGGTGGCTACGACGGGATT
B29: AAAUAUA (DNA:RNA)
RNA: B2 RNA with G25A, U27A, C28U, G29A, C30U, C31A
DNA 1: CAATCTGAATTCCGGTCTCCC
DNA 2: TGGTGGCTACGACGGGATT
B30: AGGUAGC (DNA:RNA)
RNA: B1 RNA with C25A, C26G, A28U, C29A, A30G, U31C
DNA 1: CAATCTGAATTCCGGTCTCCC
DNA 2: TGGTGGCTACGACGGGATT
B31: ACAGUUG (DNA:RNA)
RNA: B1 RNA with C25A, G27A, A28G, C29U, A30U, U31G
DNA 1: CAATCTGAATTCCGGTCTCCC
DNA 2: TGGTGGCTACGACGGGATT

Numbering of substitutions follows the chain as printed; changes in the protein carry UniProt numbers. The list shows a part of the results.

This experiment addresses T1, RBFOX1 RRM RbFoxmut (Fox-RRM*). Description: EMSA; HiTS-Eq, 1 nM pool, 10 min; buffer printed only for the single-RNA assays: 10 mM Tris pH 7.5, 150 mM NaCl, 3.4 mM EDTA, 0.001% NP-40, 30 C. Particulars: tags: His6 N-terminal (pET28a); label: 5' 32P. Put shortly: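 Relative association constants, normalised to the cognate motif, were derived by comparing read counts of each RNA species with those of the control reaction. The RNA sequenced was the free fraction, separated by 8% native PAGE after a 10 min equilibration in 50 µL of 1 nM 5′-radiolabelled RNA (7 randomized nucleotides) with increasing concentrations of purified wild-type or mutant RbFox RRM.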
For the molecule B1, the binding signal was 0.0623 KA relative to UGCAUGU.

B2: the binding signal was 0.11 KA relative to UGCAUGU.

As for B3, the binding signal was 0.061 KA relative to UGCAUGU.

Regarding B4, the binding signal is 0.0815 KA relative to UGCAUGU.

Take B5: the binding signal was 0.0733 KA relative to UGCAUGU.

B6: the binding signal was 0.0707 KA relative to UGCAUGU.

Regarding B7, the binding signal is 0.105 KA relative to UGCAUGU.

In the case of B8, the binding signal is 0.0443 KA relative to UGCAUGU.

In the case of B9, the binding signal is 0.107 KA relative to UGCAUGU.

Take B10: the binding signal is 0.111 KA relative to UGCAUGU.

Consider B11, for which the binding signal is 0.0844 KA relative to UGCAUGU.

Regarding B12, the binding signal is 0.0758 KA relative to UGCAUGU.

For B13, the binding signal was 0.0764 KA relative to UGCAUGU.

Turning to B14, the binding signal was 0.0798 KA relative to UGCAUGU.

For B15, the binding signal is 0.116 KA relative to UGCAUGU.

Turning to B16, the binding signal is 0.0792 KA relative to UGCAUGU.

For B17, the binding signal was 0.0452 KA relative to UGCAUGU.

Regarding B18, the binding signal was 0.574 KA relative to UGCAUGU.

For the molecule B19, the binding signal was 0.0723 KA relative to UGCAUGU.

As for B20, the binding signal was 0.123 KA relative to UGCAUGU.

Consider B21, for which the binding signal was 0.0784 KA relative to UGCAUGU.

As for B22, the binding signal was 0.0777 KA relative to UGCAUGU.

For the molecule B23, the binding signal was 0.103 KA relative to UGCAUGU.

B24: the binding signal was 0.0869 KA relative to UGCAUGU.

As for B25, the binding signal was 0.139 KA relative to UGCAUGU.

As to B26, the binding signal is 0.131 KA relative to UGCAUGU.

For B27, the binding signal was 0.0869 KA relative to UGCAUGU.

Take B28: the binding signal is 0.108 KA relative to UGCAUGU.

B29: the binding signal is 0.153 KA relative to UGCAUGU.

As to B30, the binding signal was 0.114 KA relative to UGCAUGU.

In the case of B31, the binding signal was 0.116 KA relative to UGCAUGU.

The values above are taken from paper PMC9911399, “Two distinct binding modes provide the RNA-binding protein RbFox with extraordinary sequence specificity”.
